# ± gives the standard deviation. The entries are a selection whose mix differs from that of the whole data set.
# System: MIWI (PIWIL1) piRISC loaded with L1MC piRNA (30 nt)
# Assay: pre-steady-state target cleavage rate (min^-1); MIWI and MILI are mouse PIWI proteins and EfPiwi is from a freshwater sponge; tags in brackets are library labels; higher = faster piRNA-guided slicing of the target
# Conditions: guide: L1MC piRNA 5'p-UAACUAAAUACUAUGCAAGCUGUAGGUCCU; auxiliary factor: 500 nM mouse GTSF1
# Procedure: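 Cleave-'n-Seq: a library of target RNAs (target site embedded in constant flanks, ACAGCATTCCGCGTTAGTGATATCCG... 5' flank; DNA-blocked outside the site) at 0.1 nM was incubated with 1 nM active mouse MILI or MIWI piRISC (synthetic 5'-monophosphorylated piRNA guide) with or without 500 nM mouse GTSF1 at 33 °C for 1 min to 16 h. Uncleaved targets were sequenced and normalised to non-target controls, and the pooled three trials were fitted to a burst-and-steady-state model to give the pre-steady-state cleavage rate (min^-1; k3 is constrained to at most 1e-4). Sequence is the target site only; target names encode pairing extent (gX:gY) and contiguous / 1-mismatch / 2-mismatch / bulge geometry. Fits with R² ≤ 0 are excluded.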
row,Sequence,pre-steady-state target cleavage rate
1,UGGACCUACACCUUGCAUAGUAUUAAGUUA,0.495 ± 0.043
2,UCCUGGAUGUGCUUGCUUAGUAUUAAGUUA,0.00968 ± 0.0036
3,UCCACCUACAGCUUGCAUAGUAUAUAGUUA,0.594 ± 0.053
4,UCCACCUACACCUUGCAUAGUAAUUAGUUA,0.704 ± 0.076
5,UGGAUCCUACAGCUUGCAUAGUAUUUAGUUA,1.37 ± 0.071
6,UCCUCCUACUGCUUGCUUAGUAUUUAGUUA,1.06 ± 0.04
7,UCGACCUACACGUUGCAUAGUAUUUAGAAA,0.288 ± 0.026
8,UCCUGCUACUCCUUGCAUAGUAUUUAGAAA,0.0975 ± 0.018
9,AGCACCUACAGCUUGCAUAGUAUUUACAAA,0.569 ± 0.087
10,UCCUCCUACACCUAGCAUAGUAUUUAGUUA,0.657 ± 0.057
11,UCCUGGUACAGCUUGCAUAGUAUUUAGUA,0.388 ± 0.04
12,UCCUGCUUCAGCUUGCAUAGAAUUUAGUUA,0.382 ± 0.028
13,UCCUGGAACAGCUUGCGAUAGUAUUUAGUUA,0.0191 ± 0.0062
14,UCCUGGAUCAGCUCUGCAUAGUAUUUAGUUA,0.985 ± 0.054
15,UCCACCUACAGCUUGCAUAGUAAUUACUUA,0.23 ± 0.035
16,UCCUGGAUGAGCUAGCAAAGUAUUUAGUUA,0.186 ± 0.017
17,UCCUGGAUGUGCUUGACAUAGUAUUUAGUUA,0.0551 ± 0.0082
18,UCCUGGAACAGCUUGCAUAGUAUUUACUUA,0.224 ± 0.021
19,UCCUGGAUGAGCUUGCAUACUAUUUUGUUA,0.0444 ± 0.01
20,AGGACCUACAGCUAGCAUAGUAUUUACUUA,0.528 ± 0.054
21,UCCACCUACUGCUAGCAUAGUAUUUAGUUA,0.704 ± 0.032
22,UCCUGGUACAGCUUGCAUAGUAUUUACAUA,0.111 ± 0.023

# Same assay, conditions: guide: L1MC piRNA 5'p-UAACUAAAUACUAUGCAAGCUGUAGGUCCU; auxiliary factor: none (no GTSF1)
row,Sequence,pre-steady-state target cleavage rate
1,UGGACCUACACCUUGCAUAGUAUUAAGUUA,0.0264 ± 0.0055
2,UCCUGGAUGUGCUUGCUUAGUAUUAAGUUA,0.00433 ± 0.0023
3,UCCACCUACAGCUUGCAUAGUAUAUAGUUA,0.0232 ± 0.0052
4,UCCACCUACACCUUGCAUAGUAAUUAGUUA,0.0161 ± 0.0032
5,UGGAUCCUACAGCUUGCAUAGUAUUUAGUUA,0.0869 ± 0.014
6,UCCUCCUACUGCUUGCUUAGUAUUUAGUUA,0.03 ± 0.0053
7,UCCUCCUACACCUAGCAUAGUAUUUAGUUA,0.0111 ± 0.0022
8,UCCUGGUACAGCUUGCAUAGUAUUUAGUA,0.0073 ± 0.002
9,UCCUGCUUCAGCUUGCAUAGAAUUUAGUUA,0.0227 ± 0.006
10,UCCUGGAACAGCUUGCGAUAGUAUUUAGUUA,0.0033 ± 0.0028
11,UCCUGGAUCAGCUCUGCAUAGUAUUUAGUUA,0.0138 ± 0.0041
12,UCCACCUACAGCUUGCAUAGUAAUUACUUA,0.00816 ± 0.0029
13,UCCUGGAUGAGCUAGCAAAGUAUUUAGUUA,0.0055 ± 0.0027
14,UCCUGGAACAGCUUGCAUAGUAUUUACUUA,0.0379 ± 0.0065
15,UCCUGGAUGAGCUUGCAUACUAUUUUGUUA,0.0102 ± 0.0032
16,AGGACCUACAGCUAGCAUAGUAUUUACUUA,0.0432 ± 0.01
17,UCCACCUACUGCUAGCAUAGUAUUUAGUUA,0.0179 ± 0.0032
18,UCCUGGUACAGCUUGCAUAGUAUUUACAUA,0.0065 ± 0.0028

# Source: the supplement of paper PMC10338343
